# Data as given in article PMC4336329 (PLoS ONE, 2015).
# The campaign covered roughly 310,000 compounds. About 14,000 (4.5%) showed an effect of 50% or more. Effects have a minus sign here. The list shows a part of the results.
# Molecular target: human ether-à-go-go-related gene (hERG) potassium channel (human, UniProt Q12809)
# Assay: primary screen, population patch clamp on CHO cells stably expressing hERG
# 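Note: peak tail current of the secondary pulse compared with the same well before compound.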
# Sequence of human ether-à-go-go-related gene (hERG) potassium channel (Q12809 whole entry, looked up): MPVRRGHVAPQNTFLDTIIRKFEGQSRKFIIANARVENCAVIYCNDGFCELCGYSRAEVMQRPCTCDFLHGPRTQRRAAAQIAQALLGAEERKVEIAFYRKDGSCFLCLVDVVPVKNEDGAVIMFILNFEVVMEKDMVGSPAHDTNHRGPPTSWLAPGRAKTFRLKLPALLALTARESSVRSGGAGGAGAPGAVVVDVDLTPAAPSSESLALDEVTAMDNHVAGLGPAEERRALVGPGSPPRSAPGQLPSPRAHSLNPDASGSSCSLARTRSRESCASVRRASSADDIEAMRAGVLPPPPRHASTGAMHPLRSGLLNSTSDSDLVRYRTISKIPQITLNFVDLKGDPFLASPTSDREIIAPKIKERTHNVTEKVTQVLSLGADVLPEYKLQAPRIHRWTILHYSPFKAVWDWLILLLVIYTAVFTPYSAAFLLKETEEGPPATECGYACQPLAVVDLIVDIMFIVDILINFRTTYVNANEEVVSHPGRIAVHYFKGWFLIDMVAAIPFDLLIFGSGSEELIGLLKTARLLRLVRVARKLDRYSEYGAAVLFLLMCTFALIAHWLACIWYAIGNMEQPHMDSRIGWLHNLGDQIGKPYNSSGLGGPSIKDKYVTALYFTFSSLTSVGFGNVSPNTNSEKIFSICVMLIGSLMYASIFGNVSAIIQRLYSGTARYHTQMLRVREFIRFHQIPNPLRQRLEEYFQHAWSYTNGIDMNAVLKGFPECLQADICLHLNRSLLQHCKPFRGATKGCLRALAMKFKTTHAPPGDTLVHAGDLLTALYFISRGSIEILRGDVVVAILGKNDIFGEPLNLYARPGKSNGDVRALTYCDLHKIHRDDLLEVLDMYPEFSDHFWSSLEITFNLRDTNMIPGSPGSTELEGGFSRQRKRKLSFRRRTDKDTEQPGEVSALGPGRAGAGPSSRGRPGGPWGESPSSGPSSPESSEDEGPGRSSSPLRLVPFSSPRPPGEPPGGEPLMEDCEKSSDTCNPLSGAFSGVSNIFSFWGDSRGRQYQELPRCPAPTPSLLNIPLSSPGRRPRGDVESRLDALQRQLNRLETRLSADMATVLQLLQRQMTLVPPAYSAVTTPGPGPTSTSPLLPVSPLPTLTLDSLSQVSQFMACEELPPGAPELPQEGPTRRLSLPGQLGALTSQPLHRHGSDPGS
row,Compound,"hERG current change (%, negative = inhibition) at 10uM [%]"
1,Cc1nn(Cc2ccccc2)c(C)c1C(=O)NCC(c1cccs1)N1CCOCC1 (centres unmarked),7.45
2,Cc1noc(C)c1COc1cccc(C(=O)N2CCc3ccccc32)c1,-26.4
3,COc1ccccc1CNC(=O)C(C)NS(=O)(=O)c1ccccc1 (centres unmarked),9.35
4,Cc1ccccc1-c1nc(CS(=O)(=O)CC(=O)N2CCCCC2)c(C)o1,-8.14
5,CSCCCN1CC[C@@H](N2CCN(c3ccccc3F)CC2)[C@H](O)C1,-36.8
6,O=C(NC1CCCC1)C(c1ccccn1)N(C(=O)c1csnn1)c1ccccc1Cl (centres unmarked),0.89
7,Cc1ccc(C)c(N/C(N)=N/c2nc(C)cc(C)n2)c1,-34.2
8,CC(C)C(=O)NC(c1cccc([N+](=O)[O-])c1)c1ccc2cccnc2c1O (centres unmarked),7.56
9,O=C(COc1ccccc1)Nc1nnc(-c2ccccc2)o1,-5.87
10,Cn1nc(-c2ccc(N3CCCCC3)c(NC(=O)c3ccco3)c2)c2ccccc2c1=O,9.65
11,Cc1ccccc1CN(c1ccc(C(=O)Nc2ccccc2C(=O)NCc2ccco2)cc1)S(C)(=O)=O,-7.85
12,O=C(COC(=O)c1ccc(F)c(S(=O)(=O)N2CCCCC2)c1)NCc1ccc(F)cc1,-28.9
13,O=C(Nc1ccncc1)Nc1ccccn1,4.5
14,CCOc1ccc(-n2c(=S)sc3c(=O)[nH]c(SCC(=O)N4CCC(C)CC4)nc32)cc1,19.9
15,CCCCC1(C(=O)OCC)NC(c2ccc(O)cc2)C2C(=O)N(c3ccccc3)C(=O)C21 (centres unmarked),-3.73
16,COC(=O)c1c(NC(=O)c2nc3ccccc3s2)sc2c1CCN(C(C)=O)C2,11.6
17,CCN1CCN(C(=O)C2CCN(C(=O)Nc3ccccc3)CC2)CC1,-4.16
18,COc1ccccc1-c1c(C(F)(F)F)oc2cc(OS(C)(=O)=O)ccc2c1=O,4.5
19,O=C1CC(N(O)c2ccccc2)C(=O)N1Cc1ccccc1 (centres unmarked),-2.37
20,Cc1cc(=O)oc2n[nH]c(-c3ccccc3)c12,-9.13
21,COc1ccc(NC(=O)C2CCN(S(=O)(=O)c3cccc4nonc34)CC2)cc1,7.34
22,COc1ccccc1/C=N/NC(=O)c1c(-c2ccccc2)noc1C,7.6
23,CS(=O)(=O)c1ccc(C(=O)OCC(=O)NC(=O)C2CCCCC2)cc1[N+](=O)[O-],28.1

row,Compound,"hERG current change (%, negative = inhibition) at 10uM [%]"
1,CCOC(=O)c1sc(NC(=O)CN2CC(C)OC(C)C2)nc1C (centres unmarked),5.03
2,N#Cc1ccccc1N=C1CCCN1Cc1ccccc1,8.61
3,COCCCN(C(=O)c1ccc2ccccc2n1)c1c(N)n(Cc2ccccc2)c(=O)[nH]c1=O,7
4,CCc1ccc(N(CC(=O)NCc2ccco2)C(=O)CCC(=O)Nc2ccccn2)cc1,-1.61
5,CCC(=O)Nc1ccc(NCc2cccs2)cc1,7.52
6,COc1ccc(-c2cc(C(=O)NCCCN3CCOCC3)no2)cc1,1.44
7,CSCC[C@H](NC(=O)N1CCn2c1nc1ccccc12)C(=O)N1CCCCC1,-11
8,CCOC(=O)Cc1csc(NC(=O)c2c(O)c3c(n(CC(C)C)c2=O)CCCC3)n1,3.52
9,Cc1ccc(-n2cc(CN3CCN(C(=O)c4ncn[nH]4)CC3)c(-c3ccc(F)cc3)n2)cc1,-9.08
10,CC1CCC(C(C)C)C(=O)/C1=C\c1ccc(NC(=O)CCC(=O)O)cc1 (centres unmarked),10.8
11,C=CCCC(=O)Nc1ccc(COC(=O)N2CCOCC2)cc1,2.94
12,CC(C)C(c1nnnn1C1CCCCC1)N1CCc2ccccc21 (centres unmarked),7.61
13,Cc1c(Cc2ccccc2)c(=O)oc2cc(O)ccc12,4.98
14,Cl.OC(COc1ccccc1)CN1CCN(Cc2ccc3c(c2)OCO3)CC1 (centres unmarked),-60.5
15,CCn1c(CNc2ccc(Cl)cc2)nnc1SCc1ccc(Cl)cc1,-30.7
16,Cc1ccc(NC(=O)CSc2nc(=O)n(Cc3ccncc3)c3c2CCC3)c(C)c1,-26.1
17,O=C(CN1C(=O)c2ccccc2C1=O)NCc1ccncc1,-33.1
18,COc1cc(OC)c(OC)cc1CNC(=O)c1cc(=O)[nH]c2ccccc12,18.4
19,COc1cc(/C=N/NC(=O)c2cc(-c3ccc4c(c3)OCO4)n[nH]2)ccc1O,6.01
20,CCCCn1cnc2cc(NCc3cccc(OC)c3O)ccc21,-51.2
21,COc1ccc(C2CC(c3ccc(Cl)cc3)=NN2C(=O)c2cccc([N+](=O)[O-])c2)cc1 (centres unmarked),14.3
22,O=C1CCC(CCC(=O)N2CCCC(C(=O)c3cccc(C(F)(F)F)c3)C2)=NN1 (centres unmarked),-31.4
23,O=C(O)c1ccc(SCc2ccccc2)nc1,-2.56

row,Compound,"hERG current change (%, negative = inhibition) at 10uM [%]"
1,COc1ccc(C(=O)Nc2ccc(Cl)c(Cl)c2)c(OC)n1,14.1
2,CC1CCN(C(=O)Cn2c(=O)n(CCc3ccccc3)c(=O)c3ccccc32)CC1,-15.4
3,Cc1ccc(S(=O)(=O)N2CCN(C)CC2)cc1,18.1
4,COC(=O)CCC(NC(=O)c1cc(C)oc1C)C(=O)OC (centres unmarked),3.86
5,Cl.Clc1ccc(C2=NCCN2)cc1,9.16
6,C=CCNC(=O)c1ccc2c3n(nc2c1)-c1ccc(Cl)cc1CO3,-48.5
7,CCCCN(C)CCNC(=O)CSCc1ccc(C)cc1.O=C(O)C(=O)O,-37.5
8,Cc1cccc(/C=C(\C#N)C(=O)Nc2ccccn2)c1,13.6
9,CCC(C)c1ccc(C2C3=C(Nc4nc(N)[nH]c(=O)c42)c2ccccc2C3=O)cc1 (centres unmarked),14.1
10,CCS(=O)(=O)N1CCCC(C(=O)c2ccc(OC)cc2C)C1 (centres unmarked),28.9
11,CCOC(=O)N1CCN(c2ncnc3scc(-c4ccc(Cl)cc4)c23)CC1,-2.17
12,NS(=O)(=O)c1ccc(CNc2ncnc3sccc23)cc1,18.4
13,CC(Oc1ccc2c(c1)oc(=O)c1ccccc12)C(=O)NCCN1CCOCC1 (centres unmarked),-5.38
14,Cc1ccc(-n2ncc3c2CCCC3NC(=O)CCn2ccnc2C)cc1C (centres unmarked),11.1
15,N#C/C(=C\c1cccc(Cl)c1)C(=O)c1ccccc1,15.4
16,O=C(CSc1nc2ccccc2[nH]1)N/N=C/c1ccco1,-4.53
17,Cn1c(=O)c2c(nc(N/N=C/c3cccs3)n2C)n(C)c1=O,-4.69
18,CCOc1ccccc1C(=O)NCC(=O)NCCCSc1ccccc1,25.8
19,CC1(C(=O)NC23CC4CC(CC(C4)C2)C3)CC1(Cl)Cl (centres unmarked),-3.58
20,COc1cccc2c(N/N=C/c3ccco3)cc(C)nc12,-5.81
21,CCOc1ccccc1NC(=O)CCNC(=O)Cn1ccc2ccccc2c1=O,6.08
22,COc1ccc(NS(=O)(=O)c2cccc3cccnc23)cc1Cl,1.72
23,CN(c1cccnc1)c1ncnc2[nH]ncc12,3.57

row,Compound,"hERG current change (%, negative = inhibition) at 10uM [%]"
1,COc1cccc(OC)c1C(=O)NNC(=O)c1cccnc1,19.6
2,CCN(c1ccccc1)S(=O)(=O)c1ccc(Cl)c(NC(=O)CN2CCN(C)CC2)c1,-59.2
3,NNC(=O)c1nc[nH]c1C(=O)Nc1ccccc1,24.1
4,COc1ccc(NC(=O)CCN2CCCC2)c(OC)c1,7.46
5,COc1ccc(OC)c(C(=O)N2CCC(n3nccc3NC(=O)CC(C)C)CC2)c1,9.25
6,C=C(C)c1cccc(C(C)(C)NC(=O)Nc2nnc(C(C)C)s2)c1,-7.97
7,COc1cc(OC)cc(C(=O)NN2CCOCC2)c1,0.542
8,CN(C)C(=O)c1ccc(NC(=O)CN2CCc3cc4c(cc3C2)OCCCO4)cc1,5.8
9,CCCN1C(=O)SC(CC(=O)Nc2ccc(C)cc2)C1=O (centres unmarked),-6.12
10,CN(Cc1cc(=O)n2ccsc2n1)C1CCCCC1,-7.56
11,Cc1cccc(NC(=O)Cn2c(=O)oc3cc(S(=O)(=O)N4CCCC4)ccc32)n1,2.33
12,COCCNC(=O)C(c1ccco1)N(C(=O)Cn1nnc2ccccc21)c1ccc(C)cc1C (centres unmarked),0.494
13,CC(=O)Oc1ccccc1/C=C1\CCOC1=O,8.5
14,COCCCn1c(-c2ccsc2)nc2c1c(=O)[nH]c(=O)n2Cc1ccccc1,-1.73
15,Cc1ccnc(N2C(=O)c3ccc([N+](=O)[O-])cc3C2=O)c1,13
16,CCCCNC(=O)Nc1ccccc1Br,1.95
17,Cc1ccc(S(=O)(=O)NCC(=O)N2CCN(c3ccc(F)cc3)CC2)cc1,-10.2
18,COCCN(C(=O)CSc1nc2ccc(OC)cc2[nH]1)c1c(N)n(Cc2ccccc2)c(=O)[nH]c1=O,11.6
19,COc1ccc(CN(CC(=O)NC2CCCC2)C(=O)CCC(=O)Nc2cc(C)on2)cc1,-8.45
20,COc1ccc(OCCSc2nnc(CC(=O)Nc3cccc(Cl)c3Cl)n2C)cc1,16.7
